According to the supplement of paper PMC11417369:
Some of the results follow.

What follows are sequences tested on PfSIP2 AP2 domain 1 (GST-tagged) (assay: gcPBM binding intensity (ln(normalized median fluorescence intensity)); higher = stronger DNA binding).
Method in brief: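 DNA-binding domains from P. falciparum, fused to GST and produced in E. coli, were put on an Agilent 4 × 180k double-stranded probe array for 1 h in 1× PBS holding 1% milk, 0.2 mg/ml BSA, 0.5% salmon testes DNA and 0.03% Triton X-100. Probes were primer-extended, 36 bp long and drawn from intergenic genomic regions, with negative controls included. After Alexa488 anti-GST antibody detection and a 488 nm scan, binding intensity was set as the highest Masliner-normalised natural-log median intensity across replicate spots of either probe orientation.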

Sequence	gcPBM binding intensity (ln)
TCTTTCTGCTCTTATACACACAAATAAAGATTTTTT [CACACA_site2700]	7.49
ATGAAATTTTCATATTGTACTATTAAAAATATATTT [XGTACX_site1989]	7.12
TGTAGATTTTGTAACACACACATATAAATACAGATA [CACACA_site5343]	7.1
TAAGGGATATGTATATGTACATACAAATATATATAA [XGTACX_site2892]	6.99
TTTGCTTCGATATATTCACACATTTTTTTTCTTATT [CACACA_site4499]	7.06
AAATGTAATAAATATACACACACAAATATATATATA [CACACA_site8754]	8.48
AATTTCATTTTTAGAAGTACATTTATATTAAAAATC [XGTACX_site2888]	7.02
TAAGATCCTTAAAACGCATGCAGTATTTTTATTTCT [TGCATGCA_site532]	6.67
TAGCCAAAAGGATATGCACACACACCCACATATATA [CACACA_site8684]	7.07
CATATAATTATTTTCACACATATAACTACATCTATA [CACACA_site5915]	6.93
CTTTTACGTTTAGGATGTACATTTAAAAAAAAAGAA [XGTACX_site8032]	7.3
ATATAAATAAAAAAAAGTACATAATATATAAAAATA [XGTACX_site3065]	7.13
AATAAATATTAAATGACAAAAAAAAAAAAAAAAGGG [XGTACX_negctrl_site15]	7.65
TATAATCCATAAGAAGCACACACATATATATATATT [CACACA_site8394]	7.16
TTAAGATGCATAAATACATGCAAAGTAAATAATTCT [TGCATGCA_site517]	6.88
TTAGCAGGACGTTTGGTGCACGTACTGTTTTTCTTT [GTGCAC_site9856]	10.3
ATTATAAGAATTAAAAGAAACAAAATTTTAATTATA [CACACA_negctrl_site610]	6.78
AAAAAGAAGAATAATACACACAAATTATTTTATATA [CACACA_site1919]	6.72
TATTCCAAAAATGTGTGTACATAAATACAATATTAT [XGTACX_site2653]	7.32
TATAATAAATGGACGGTGCGACATGACCATATGTGT [GTGCAC_site9476]	8.55
TTGTTAATAAAAATATTGGAAAGTTTATAAAATTTT [CACACA_negctrl_site1487]	6.67
TTATTTTCTTTTTCTTGTACACACATAATATGGATG [XGTACX_site1481]	7.05

Sequence	gcPBM binding intensity (ln)
ATAATATATATACAAACACACAATTGCGTCCACATT [CACACA_site8515]	7.35
GACACCCATAAATATACACACGCACAACACAAAATA [CACACA_site8944]	7.67
TTATTTTTTAGTAGTACACACTTTTTGTACCTTTTA [CACACA_site4503]	7.14
CTTACCAAAAAACACACACACACAAAATATATAAAT [CACACA_site1870]	7.23
AATAAAAAAAAAAAAAAAAAAAAAAAGACACTAAAA [CACACA_negctrl_site1075]	6.75
CTAAAAGAACATGTGTGTACTTATGTTCTCTTTTTT [XGTACX_site5983]	6.73
AATAGGAAAGATTTTGCATGTGATATAAGTAATTTT [TGCATGCA_site657]	6.84
CATATAATAAATAGATGTACAGACTATATATATATA [XGTACX_site6575]	9.33
TTTATATGATACACACGTACATATACACATATACAC [XGTACX_site8123]	7.22
TATATATATATTTTTGCACACATTTTTTAAGGTACA [CACACA_site2145]	8.67
TATAATATTTATATAACACACATATAGATTTATTTA [CACACA_site6269]	6.96
TATATTAAAGGGGTTTCACACACATGTATAATTAAT [CACACA_site7950]	6.92
TATTATTTAATCAAATGTACATAGAAAATGTATGTA [XGTACX_site4433]	6.93
ATGTAAAATTAATATTGTACTTTTCCATCATGATAC [XGTACX_site2669]	7
AACAAACACAGACACACACACACACCCAAATGATTA [CACACA_site2431]	7.26
ATAATATAACACAAATGTACAAAAAATAAATAAATA [XGTACX_site385]	6.83
CATACTCACCAACACACACACACACCCATATAGAAT [CACACA_site592]	7.23
TATATATATACTTAATGTACATATATATATATATAT [XGTACX_site3102]	9.75
CACAGATAAATTAACACACACACACCCATATATATA [CACACA_site3960]	7.66
CTTTTTGAAATATTAACACACATTTTGTTAATTAAT [CACACA_site4046]	6.85
AAAAGGAAGATATATACACACATACAAATATATATA [CACACA_site5236]	7.2
CTATTTGGGGGAAGAGTGCATGACATGAATATAAAA	9.99

Sequence	gcPBM binding intensity (ln)
CTATATTATAAATATACACACATATCTTAAGTATAA [CACACA_site3096]	6.98
ATTAGTATTAGATGATGTACATTTATATTGAAATAT [XGTACX_site8537]	7.03
TTGATGTATACAATGTAGATTATTTAATATTTCAAC [CACACA_negctrl_site73]	6.99
TTTTTTTTTTTTTTCACACACTAATAATATTATCAT [CACACA_site4417]	7.18
ATAAATTTTTAAAAATATGAATTATGTAATTTGTGA [CACACA_negctrl_site1621]	6.92
ATAAAAATACAGTTAACACACATGTGTATTTATATG [CACACA_site7727]	7.01
GAAAACGTTTGAAGTTGTACATATGTATAAAAAGAA [XGTACX_site2304]	7.61
ATGGTCTGTTAAAGATGTACTTTTTAAAAATAAACG [XGTACX_site2583]	7.15
TGTTATTTAAATAATTCTTTTTAAAAGATGAATTAT [CACACA_negctrl_site1226]	6.89
TTACTTAAGAAACACACACACAAAAAAAAAAAAAAA [CACACA_site946]	7.01
ATCATAATCATAAAAAGTACAAACGATAAAATAAAT [XGTACX_site3832]	7.23
TATGTAAAAAATTTAACACACACATATATATATATA [CACACA_site8829]	9.47
TTTTTTTCTGTGAGTGCATGTAATAAAATAAATTTA [TGCATGCA_site276]	9.79
TTCAAAAATATATAATGTACACAAATATAAAAGAAT [XGTACX_site1944]	7.42
TGTTATTTTAAAAAAAAAATTATTAACTTAAAAAAA [CACACA_negctrl_site1641]	6.68
TATTATTGTCTTTCAAAAAAAAAAAAAAAAAAAAAA [CACACA_negctrl_site1242]	6.91
TATTTATAATAGTGTACACAATTATAAACTGAATAT [CACACA_site6041]	7.37
CAACATATATTAATATGTACATATATATAGATATAT [XGTACX_site4107]	6.98
ATAATTTGTGGACACACACACACACCGACATATATA [CACACA_site8718]	7.26
TTGTTAATGGTACGAACACACATATAAAGATGCATA [CACACA_site2044]	7.02
TTATTCACTTCTTTTTAAAAAAAAAAAAAAAAAAAA [CACACA_negctrl_site223]	6.85
ATTTCGAATATTAAGTGTACAATATAAATATATAAA [XGTACX_site6674]	7

Sequence	gcPBM binding intensity (ln)
TTATATGAATTTTAGATTTATAATACAAGAATATTC [CACACA_negctrl_site70]	6.74
AAAAAAAAAAAAAAAAGTACAAATAAAAAAAAAATA [XGTACX_site4814]	7.51
ATTAAATACATTAACACACACACAAATATGTACATA [CACACA_site7372]	7.13
ATATTATATAATATACGTACATATATTATGCATAAA [XGTACX_site7895]	7.19
TACGTAGCCACACTAACACACACAAATATGCACAAT [CACACA_site8942]	8.89
TTTTTTTTAAAAAACACACACCTAAACAAGATATTT [CACACA_site6541]	7.05
CATATTTTTAAATACACACACATAAAAAAAAAAAAA [CACACA_site1095]	6.94
AAATAAAAAAGTAGTACACACTTCACGATATTTTTT [CACACA_site6015]	7.33
AAAAATATAAACTGCACACACACAAAAAAAGAAAAA [CACACA_site648]	7.25
TATATACATATATGTACACACATTACAGATGTACAT [CACACA_site966]	7.38
AATCTAATATAATGCACACATAAAAAAAAAATCAAA [CACACA_site2714]	7.29
TATATTTACAATAAAACGTTATTTTTTGTTATTTTC [CACACA_negctrl_site612]	6.79
GAAAAAAAAAAAAAAAAAAAAAGGAAAAAAGTGAAA [CACACA_negctrl_site996]	6.65
ATAAAACAATAAAATTGTACATAAATTGATTATACT [XGTACX_site6723]	6.85
ACGTTTACGTTATTATGTACGTAATATATCATACCT [XGTACX_site5006]	6.85
GAATAAATAGACGAGTGTACTTTTTTTTAAAAAAAA [XGTACX_site7880]	7.18
AATTAAATTAGAAGCACACACATATTTATATTTATA [CACACA_site7552]	6.84
GTATATATTTAAACACGTACACAAAACCCAAAAAAT [XGTACX_site8110]	7.3
ATACACTCACTCACACGTACAGACAACGGACGATCA [XGTACX_site1097]	7.42
AATAATAACACCGTGGATACACAATAACAAAGAACT [CACACA_negctrl_site532]	7.15
AAATATTTTTTTTCTACACACATACAAATATATATT [CACACA_site5325]	7.18
TTTCATTTAGCTTTTACACACTATATATCATTGATT [CACACA_site6158]	7.03
